This is an account of results in patent US20200339692A1 (JIANGSU HENGRUI MEDICINE, published 2020).

For experiment [1], the target named is T1, human PD-L1 (ligand blocking test) (human, UniProt Q9NZQ7 fragment, limits assumed). Put plainly: blocking of human PD-L1/PD-1 binding, PD-L1 10 ug/ml; competitor PD-1.
For experiment [2], the target named is T1, human PD-L1 (ligand blocking test). Kind of experiment: blocking of B7-1 binding to human PD-L1, PD-L1 1 ug/ml; competitor B7-1.
Experiment [3] concerns the target T2, human PD-L1 (Cat. #10084-H08H, Sino Biological) (human, UniProt Q9NZQ7 fragment).
T2 construct: Bought recombinant protein used in the Biacore test; also called hPDL1; hPD-L1
Put plainly: SPR, Biacore X100, 1:1 Langmuir. The method, then:
(§1) According to the method in the manual of human anti-capture kit (Cat. A BR-1008-39, GE), the human anti-capture antibody was covalently coupled to biosensor chip CM5 (Cat. #BR-1000-12, GE) so that a certain amount of human PD-L1 (Cat. #10084-H08H, Sino Biological) monkey PD-L1 (Cat. #90251-C08H, Sino Biological), mouse PD-L1 (Cat. #50010-M08H, Sino Biological) were affinity captured. The affinity of PD-L1 antibody reacting with PD-L1 was measured with Biacore X100, GE instrument.
(In general: SPR reads the build-up and loss of mass on a sensor chip optically.)

Experiment [4] concerns the target T3, monkey PD-L1 (Cat. #90251-C08H, Sino Biological) (monkey (cyno), UniProt G7PSE7 19-239).
T3 construct: Bought recombinant protein used in the Biacore test; also called Monkey (cyno) PD-L1; Cyno PDL1
T3 sequence (G7PSE7 entry or part of it C08H C08H): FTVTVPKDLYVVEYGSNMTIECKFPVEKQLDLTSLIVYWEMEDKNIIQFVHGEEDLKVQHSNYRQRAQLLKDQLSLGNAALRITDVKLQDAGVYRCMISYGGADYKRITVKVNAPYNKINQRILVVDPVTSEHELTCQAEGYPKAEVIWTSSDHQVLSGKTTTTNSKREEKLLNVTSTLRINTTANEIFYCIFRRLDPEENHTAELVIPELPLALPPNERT
Put plainly: SPR, Biacore X100, 1:1 Langmuir. The method, then: as §1

Experiment [5] addresses T4, mouse PD-L1 (Cat. #50010-M08H, Sino Biological) (mouse, UniProt Q9EP73 fragment).
T4 construct: Bought recombinant protein used in the Biacore test
T4 sequence (Q9EP73 19-238 limits assumed, stated change not applied): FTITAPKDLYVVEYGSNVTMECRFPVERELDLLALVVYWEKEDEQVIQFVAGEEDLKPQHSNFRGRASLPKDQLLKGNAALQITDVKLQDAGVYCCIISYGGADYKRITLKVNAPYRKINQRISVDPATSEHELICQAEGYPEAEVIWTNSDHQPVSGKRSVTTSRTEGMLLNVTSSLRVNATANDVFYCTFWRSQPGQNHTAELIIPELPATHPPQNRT
Kind of experiment: SPR, Biacore X100. The protocol: as §1

T1 sequence (Q9NZQ7 19-238 limits assumed): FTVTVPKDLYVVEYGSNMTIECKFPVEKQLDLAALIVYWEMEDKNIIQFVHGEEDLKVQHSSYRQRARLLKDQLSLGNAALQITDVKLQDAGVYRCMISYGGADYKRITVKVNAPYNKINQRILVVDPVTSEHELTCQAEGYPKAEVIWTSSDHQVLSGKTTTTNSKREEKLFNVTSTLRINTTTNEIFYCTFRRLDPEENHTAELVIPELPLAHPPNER

B1: HRP00049-IgG1 (antibody)
heavy: QVQLQESGPGLVKPSQTLSLTCTVSGGSISNDYWTWIRQHPGKGLEYIGYISYTGSTYYNPSLKSRVTISRDTSKNQFSLKLSSVTAADTAVYYCARSGGWLAPFDYWGRGTLVTVSS[human IgG1 constant region left out]
light: DIVMTQSPDSLAVSLGERATINCKSSQSLFYHSNQKHSLAWYQQKPGQPPKLLIYGASTRESGVPDRFSGSGSGTDFTLTISSLQAEDVAVYYCQQYYGYPYTFGGGTKVEIKRTVAAPSVFIFPPSDEQLKSGTASVVCLLNNFYPREAKVQWKVDNALQSGNSQESVTEQDSKDSTYSLSSTLTLSKADYEKHKVYACEVTHQGLSSPVTKSFNRGEC
notes: HRP00049-IgG1 is built by analogy
With B1, the results for the IC50 in experiment [1] and in experiment [2] were 0.265 ng/mL and 1.88 ng/mL, respectively.

B2: HRP00049: 9-2 (H2/L10) IgG4(AA)(S228P) (antibody)
heavy: QVQLQESGPGLVKPSQTLSLTCTVSGGSISNDYWTWIRQHPGKGLEYIGYISYTGSTYYNPSLKSRVTISRDTSKNQFSLKLSSVTAADTAVYYCARSGGWLAPFDYWGRGTLVTVSSASTKGPSVFPLAPCSRSTSESTAALGCLVKDYFPEPVTVSWNSGALTSGVHTFPAVLQSSGLYSLSSVVTVPSSSLGTKTYTCNVDHKPSNTKVDKRV[human IgG4 Fc with S228P F234A L235A (EU numbers) left out]
light: B1 light
notes: Parent antibody from WO2017084495A1
For the molecule B2, in experiment [3], the Kd was 0.186 nM, the dissociation rate constant (koff) was found to be 0.000119 s⁻¹ and the kon was 638000 M⁻¹ s⁻¹. In experiment [4], this molecule displayed a Kd of 0.187 nM, a koff of 0.000111 s⁻¹ and a kon of 593000 M⁻¹ s⁻¹. In experiment [5], the binding result is given as “no binding”.

In general, IC50 refers to the concentration that gives 50% inhibition. What is called Kd is the concentration at which binding is half-saturated. The koff is the first-order rate constant of dissociation. What is called kon is the rate constant with which the complex forms.
